Assay results from the supplement of paper PMC4967469.

How the values were obtained:
Experiment in all cases: Viability of human cancer cell lines after 72 h of drug (GDSC screen)
OSI-930 = compound: O=C(Nc1ccc(OC(F)(F)F)cc1)c1sccc1NCc1ccnc2ccccc12 [OSI-930]; details: top dose 10.24 µM
Description: (§1)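 Human cancer cell lines in 384-well plates, medium with 10% serum, drug for 72 h over a 256-fold dose range (nine 2-fold or five 4-fold steps up to the top dose). Adherent lines were fixed and stained with the nucleic acid dye Syto60, suspension lines read with resazurin; signal relative to control wells, capped at 0 and 100%. One two-parameter sigmoid per drug and line, fitted in a mixed model over all curves with the slope shared within a line.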

Elesclomol = compound: CN(NC(=O)CC(=O)NN(C)C(=S)c1ccccc1)C(=S)c1ccccc1 [Elesclomol]; details: top dose 0.2 µM; top dose inferred
Description: as §1

BX-912 = compound: O=C(Nc1cccc(Nc2ncc(Br)c(NCCc3cnc[nH]3)n2)c1)N1CCCC1 [BX-912]; details: top dose 10.24 µM; top dose inferred
Description: as §1

LAQ824 = compound: O=C(/C=C/c1ccc(CN(CCO)CCc2c[nH]c3ccccc23)cc1)NO [LAQ824]; details: top dose 1.024 µM; top dose inferred
Description: as §1

Bleomycin = compound: Cc1c(N)nc([C@H](CC(N)=O)NC[C@H](N)C(N)=O)nc1C(=O)N[C@H](C(=O)N[C@H](C)[C@@H](O)[C@H](C)C(=O)N[C@H](C(=O)NCCc1nc(-c2nc(C(=O)NCCC[S+](C)C)cs2)cs1)[C@@H](C)O)[C@@H](OC1OC(CO)C(O)C(O)C1OC1OC(CO)C(O)C(OC(N)=O)C1O)c1cnc[nH]1 [Bleomycin]
Description: as §1

Masitinib = compound: Cc1ccc(NC(=O)c2ccc(CN3CCN(C)CC3)cc2)cc1Nc1nc(-c2cccnc2)cs1 [Masitinib]; details: top dose 20 µM
Description: as §1

NSC-87877 = compound: O=S(=O)(O)c1ccc2cc(N=Nc3cc(S(=O)(=O)O)c4cccnc4c3O)ccc2c1 [NSC-87877]; details: top dose 16 µM; top dose inferred
Description: as §1

Tamoxifen = compound: CC/C(=C(\c1ccccc1)c1ccc(OCCN(C)C)cc1)c1ccccc1 [Tamoxifen]; details: top dose 5 µM
Description: as §1

VNLG/124 = compound: CCCC(=O)OCc1ccc(OC(=O)/C=C(C)/C=C/C=C(C)/C=C/C2=C(C)CCCC2(C)C)cc1 [VNLG/124]; details: top dose 5.12 µM; top dose inferred
Description: as §1

[1] = top dose 50 µM, screen: GDSC drug entry 1378, top dose inferred
[2] = top dose 64 µM, screen: GDSC drug entry 190

| Cell Line | AUC (OSI-930) | IC50 (OSI-930) | AUC (Elesclomol) | IC50 (Elesclomol) | AUC (BX-912) | IC50 (BX-912) | AUC (LAQ824) | IC50 (LAQ824) | AUC (Bleomycin; [1]) | IC50 (Bleomycin; [1]) | AUC (Bleomycin; [2]) | IC50 (Bleomycin; [2]) | AUC (Masitinib) | IC50 (Masitinib) | AUC (NSC-87877) | IC50 (NSC-87877) | AUC (Tamoxifen) | IC50 (Tamoxifen) | AUC (VNLG/124) | IC50 (VNLG/124) |
| --- | --- | --- | --- | --- | --- | --- | --- | --- | --- | --- | --- | --- | --- | --- | --- | --- | --- | --- | --- | --- |
| RPMI-6666 (Hodgkin lymphoma, suspension) | 0.811 | 6.83 µM | 0.977 | > 200 nM | 0.705 | 2.76 µM | 0.186 | 5.79 nM | 0.335 | 0.981 µM | 0.225 | 0.521 µM | 0.753 | 7.89 µM | 0.981 | > 16 µM | 0.956 | > 5 µM | 0.822 | 3.84 µM |
| TE-15 (oesophagus, suspension) | 0.938 | > 10.2 µM | 0.927 | > 200 nM | 0.879 | > 10.2 µM | 0.433 | 40.9 nM | 0.83 | 37.2 µM | 0.49 | 3.74 µM | 0.897 | > 20 µM | 0.985 | > 16 µM | 0.968 | > 5 µM | 0.918 | > 5.12 µM |
| AM-38 (glioma, semi-adherent) | 0.983 | > 10.2 µM | 0.823 | 121 nM | 0.861 | 8.93 µM | 0.552 | 88.9 nM | 0.889 | > 50 µM | 0.557 | 5.73 µM | 0.889 | > 20 µM | 0.984 | > 16 µM | 0.98 | > 5 µM | 0.988 | > 5.12 µM |
| NCI-H520 (lung squamous cell carcinoma, adherent) | 0.917 | > 10.2 µM | 0.808 | 107 nM | 0.842 | 7.52 µM | 0.427 | 40.1 nM | 0.936 | > 50 µM | 0.739 | 19.8 µM | 0.852 | 16.2 µM | 0.987 | > 16 µM | 0.986 | > 5 µM | 0.986 | > 5.12 µM |
| NCI-H2029 (small cell lung carcinoma, adherent) | 0.991 | > 10.2 µM | 0.981 | > 200 nM | 0.932 | > 10.2 µM | 0.666 | 176 nM | 0.959 | > 50 µM | 0.939 | > 64 µM | 0.968 | > 20 µM | 0.988 | > 16 µM | 0.992 | > 5 µM | 0.989 | > 5.12 µM |
| CAKI-1 (kidney, adherent) | 0.977 | > 10.2 µM | 0.586 |  | 0.971 | > 10.2 µM | 0.59 | 127 nM | 0.469 | 2.47 µM | 0.329 | 1.05 µM | 0.893 | > 20 µM | 0.977 | > 16 µM | 0.915 | > 5 µM | 0.957 | > 5.12 µM |
| LOUCY (T-cell lymphoblastic leukaemia, suspension) | 0.976 | > 10.2 µM | 0.665 | 32.6 nM | 0.174 | 0.0862 µM | 0.189 | 9.62 nM | 0.901 | 43.5 µM | 0.043 | < 0.25 µM | 0.893 | 16.1 µM | 0.992 | > 16 µM | 0.975 | > 5 µM | 0.739 | 1.31 µM |
| SCC-25 (head and neck, adherent) | 0.962 | > 10.2 µM | 0.603 | 25 nM | 0.839 | 8.33 µM | 0.491 | 60.3 nM | 0.935 | > 50 µM | 0.251 | 0.69 µM | 0.882 | > 20 µM | 0.943 | > 16 µM | 0.937 | > 5 µM | 0.905 | > 5.12 µM |
| DAN-G (pancreas, adherent) | 0.969 | > 10.2 µM | 0.56 | 17.8 nM | 0.964 | > 10.2 µM | 0.596 | 113 nM | 0.307 | 0.976 µM | 0.953 | > 64 µM | 0.932 | > 20 µM | 0.992 | > 16 µM | 0.991 | > 5 µM | 0.985 | > 5.12 µM |
| SAS (head and neck, adherent) | 0.944 | > 10.2 µM | 0.61 | 26 nM | 0.9 | > 10.2 µM | 0.567 | 99.5 nM | 0.16 | 0.242 µM | 0.494 | 3.85 µM | 0.929 | > 20 µM | 0.975 | > 16 µM | 0.98 | > 5 µM | 0.981 | > 5.12 µM |
| COLO-205 (large intestine, suspension) | 0.957 | > 10.2 µM | 0.976 | > 200 nM | 0.724 | 2.73 µM | 0.272 | 14.6 nM | 0.934 | > 50 µM | 0.349 | 1.53 µM | 0.901 | > 20 µM | 0.983 | > 16 µM | 0.983 | > 5 µM | 0.988 | > 5.12 µM |
| HH (T-cell leukaemia, suspension) | 0.85 | > 10.2 µM | 0.743 | 79.8 nM | 0.686 | 2.54 µM | 0.236 | 8.28 nM | 0.843 | > 50 µM | 0.464 | 3.09 µM | 0.826 | 17.8 µM | 0.977 | > 16 µM | 0.88 | > 5 µM | 0.624 | 0.786 µM |
| NCI-H1666 (lung adenocarcinoma, semi-adherent) | 0.973 | > 10.2 µM | 0.937 | > 200 nM | 0.964 | > 10.2 µM | 0.736 | 325 nM | 0.76 | 19.2 µM | 0.919 | > 64 µM | 0.947 | > 20 µM | 0.984 | > 16 µM | 0.944 | > 5 µM | 0.987 | > 5.12 µM |

The IC50 comes from the fitted curve, where viability falls to half of the control; a limit (>, <) means that the fit lies beyond the doses tested. AUC sums up the same curve from the lowest dose to the 256-fold higher top dose; values near 1 show little effect. For some of these results: An inferred top dose was calculated from the reported fits. For some of these results: An entry number marks a drug with two screens in the source, which often give different values.
